In PubChem BioAssay AID488969 (Vanderbilt High Throughput Screening Facility, 2010):
The full ranking holds about 110,000 compounds; the median of “z-score” is about -0.1, and the highest 2% start at about 2. The list shows a part of the results. The source made the active and inactive calls.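 The calls were made as follows: active = z-score in the third read window above 3 or below -3; inactive = the rest.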

The molecules below were run against Metabotropic glutamate receptor 8 (Rattus norvegicus) (UniProt P70579) (assay: mGluR8 Gi/Go-coupled signaling modulation – cell-based, rat, thallium flux, HTS, primary screen (AID 488969)). Conditions: HEK293 rat mGluR8, GIRK (G protein-gated inwardly rectifying potassium channel) thallium flux, FluoZin2; at 10 µM; stronger effect = higher value; submaximal glutamate (EC20) added with thallium.
Chain of UniProt P70579 (P70579 whole entry, looked up): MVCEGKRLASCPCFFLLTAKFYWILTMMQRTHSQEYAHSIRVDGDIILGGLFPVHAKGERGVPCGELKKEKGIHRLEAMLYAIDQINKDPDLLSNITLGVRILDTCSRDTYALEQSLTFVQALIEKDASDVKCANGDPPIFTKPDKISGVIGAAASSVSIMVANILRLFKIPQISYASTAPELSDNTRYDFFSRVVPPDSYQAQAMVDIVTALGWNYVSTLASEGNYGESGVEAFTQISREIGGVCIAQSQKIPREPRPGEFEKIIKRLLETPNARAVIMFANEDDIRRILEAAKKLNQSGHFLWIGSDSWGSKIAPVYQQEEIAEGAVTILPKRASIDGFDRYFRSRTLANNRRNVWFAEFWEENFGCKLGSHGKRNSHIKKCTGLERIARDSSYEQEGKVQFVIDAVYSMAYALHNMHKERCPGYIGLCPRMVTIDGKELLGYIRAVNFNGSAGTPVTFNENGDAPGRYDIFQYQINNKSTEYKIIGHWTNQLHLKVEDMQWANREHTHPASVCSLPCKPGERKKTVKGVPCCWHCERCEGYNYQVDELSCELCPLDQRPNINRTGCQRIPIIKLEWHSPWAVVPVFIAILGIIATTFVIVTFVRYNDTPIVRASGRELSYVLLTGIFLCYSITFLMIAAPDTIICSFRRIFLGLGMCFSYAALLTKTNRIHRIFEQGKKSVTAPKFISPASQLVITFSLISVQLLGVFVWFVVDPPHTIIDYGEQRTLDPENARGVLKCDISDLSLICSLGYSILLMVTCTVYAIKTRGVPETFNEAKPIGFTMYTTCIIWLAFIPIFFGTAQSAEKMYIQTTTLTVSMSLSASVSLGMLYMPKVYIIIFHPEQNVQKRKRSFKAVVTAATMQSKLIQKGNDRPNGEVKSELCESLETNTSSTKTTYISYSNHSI

Going from `COc1ccc(CNC(=O)c2ccc(S(=O)(=O)N3CCCC3)cc2)cc1OC` to `O=C(c1ccc(S(=O)(=O)N2CCCCC2)cc1)N1CCN=C1SCc1cccnc1`, the z-score falls from 0.432 to 0.0251.

Going from `O=C(O)Cn1cnc2ccccc2c1=O` to `O=C(/C=C\c1ccccc1)Nc1nccs1`, the z-score rises from -0.107 to 0.24.

Compared with `O=C(O)CCc1ccc(-c2ccccc2)n1NC(=O)c1sc2ccccc2c1Cl`, `COc1ccccc1-n1cnc2sc(-c3ccccc3)cc2c1=O` is higher in z-score: -0.0719 for the first, -0.0702 for the second.

Going from `CN(C)S(=O)(=O)c1cccc(NC(=O)c2ccc(OC(F)(F)F)cc2)c1` to `CCC(=O)Nc1ccc(C(=O)Nc2ccc(OC)cc2[N+](=O)[O-])cc1`, the z-score rises from -0.329 to -0.0433.

Compared with `CCOc1ccccc1NC(=S)N1C2CCC1CC(NC(=O)NC13CC4CC(CC(C4)C1)C3)C2` (stereo not given), `NC(=O)C1(N2CCCCC2)CCN(CC(=O)Nc2ccccc2-c2ccccc2)CC1` is lower in z-score: -0.0523 for the first, -0.162 for the second.

Going from `CCOC(=O)CC(=O)CSc1nc2sc(C)cc2c(=O)n1Cc1ccco1` to `CCOC(=O)Cn1c(=NC(=O)CN2C(=O)CCC2=O)sc2cc(S(N)(=O)=O)ccc21`, the z-score falls from 0.0235 to -0.111.

Compared with `COc1ccc(CN(C)CCc2ccccn2)cc1OC`, `COc1cc(C2C(C(C)=O)=C(O)C(=O)N2CCc2ccc(OC)c(OC)c2)ccc1O` (stereo not given) is higher in z-score: -0.0672 for the first, 0.323 for the second.

Compared with `O=C(CNC(=O)c1ccccc1Cl)Nc1ccc(F)cc1`, `O=C(Cc1ccccc1)NCCCc1ccccc1` is lower in z-score: 0.156 for the first, 0.0139 for the second.

Going from `COc1ccc(NC(=O)C2C3C=CC(C3)C2C(=O)NCc2ccccn2)c(OC)c1` (stereo not given) to `CS(=O)(=O)N(CC(=O)NCc1ccccn1)c1ccc2c(c1)OCCO2`, the z-score rises from -0.404 to 0.763.

Going from `COc1ccccc1Nc1nc2nonc2nc1N1CCCCC1C` (stereo not given) to `Cc1cc(N2CCN(c3nc4ccccc4s3)CC2)n2ncnc2n1`, the z-score falls from -0.202 to -1.35.

Going from `O=C(NC1CCCCC1NC(=O)c1ccco1)c1ccco1` (stereo not given) to `O=C1CC(C(=O)Nc2ccccc2)C2(CCCC2)O1` (stereo not given), the z-score falls from 0.265 to -0.154.

Compared with `Cc1sc2nc(CN3CCOCC3)[nH]c(=O)c2c1-c1ccccc1`, `O=C(OCCN1C(=O)c2ccccc2C1=O)c1cc(S(=O)(=O)N2CCOCC2)ccc1F` is higher in z-score: -0.112 for the first, -0.0479 for the second.

First: CCCC(=O)N1CCN(S(=O)(=O)c2cc(Cl)ccc2OC)CC1
Second: O=[N+]([O-])c1ccc(S(=O)(=O)N2CCN(Cc3c[nH]c4ccccc34)CC2)cc1
The z-score of the first is lower: -0.187 for the first, 0.0733 for the second.

Going from `Cc1ccc(C(=O)N/C(=C\c2cccc([N+](=O)[O-])c2)C(=O)NCc2ccncc2)cc1` to `O=C(NCCCn1ccnc1)/C(=C/c1ccco1)NC(=O)c1ccccc1`, the z-score rises from -0.178 to 0.0563.

Going from `CCc1nc2sc3c(c2c(=O)n1N)CCC3` to `CCOC(=O)c1c(NC(=O)c2ccoc2C)sc2c1CCC2`, the z-score falls from 1.94 to -0.429.

Going from `CC(C)NC(=O)C1CCN(Cc2cnn(-c3ccccc3)c2-n2cccc2)CC1` to `Clc1ccccc1CN1CCC(Cc2ccccc2)CC1`, the z-score rises from -0.777 to -0.0513.

Going from `Cc1cc2ncn(S(=O)(=O)N3CCOCC3)c2cc1C` to `O=C1c2ccccc2C(Nc2ccc(S(=O)(=O)N3CCOCC3)cc2)N1c1cccnc1` (stereo not given), the z-score rises from -0.099 to 0.421.

Compared with `O=C(/C=C/c1cccc(C(F)(F)F)c1)Nc1cccc(C(F)(F)F)c1`, `FC(F)(F)c1cc(Oc2ccc(Cl)cc2)nc(-c2ccccn2)n1` is higher in z-score: -0.246 for the first, -0.207 for the second.

Compared with `CCSc1nc2ccc(OC)cc2cc1C#N`, `CCN(CC)CCCNc1oc(-c2ccc(OC)c(OC)c2)nc1C#N` is higher in z-score: -0.381 for the first, -0.222 for the second.

Going from `CCCC(=O)NNC(=O)CCC(=O)NCc1ccccc1` to `COc1ccc(C(=O)NC(=S)NNC(=O)Cc2cccs2)cc1`, the z-score rises from -0.151 to 0.741.

Compared with `CC1(C)CC(=O)c2cc(OCC(=O)NCCCN3CCN(c4ccc(F)cc4)CC3)ccc2O1`, `Cc1ccc(-n2nc(C(=O)N3CCN(C)CC3)c3c4ccccc4n(C)c3c2=O)cc1` is lower in z-score: 0.0517 for the first, -0.129 for the second.

Going from `CC(OC(=O)c1ccc2c(=O)n3c(nc2c1)CCCCC3)C(=O)Nc1ccc(Cl)cn1` (stereo not given) to `CCc1ccc(NC(=O)C(C)OC(=O)c2cccc(S(=O)(=O)N3CCc4ccccc4C3)c2)cc1` (stereo not given), the z-score falls from -0.541 to -0.686.

First: CCNC(=O)c1nc[nH]c1C(=O)NCC
Second: CCc1nc(C)ccc1OCC(=O)N(CC)CC
The z-score of the first is higher: -0.0678 for the first, -0.238 for the second.

Compared with `Cc1[nH]c2ccc3c(ncn3CCC#N)c2c1C`, `COc1ccc(C2C(C(N)=O)=C(C)Nc3ncnn32)cc1` (stereo not given) is lower in z-score: -0.0538 for the first, -0.213 for the second.

First: CCNc1nc(NC(C)C)nc(NS(=O)(=O)c2ccc(N)cc2)n1
Second: Cc1ccc(NC(=O)NCCCN2CCCC2=O)cc1
The z-score of the first is higher: 0.299 for the first, -0.26 for the second.

Going from `CC(C)(C)c1ccc(CN(Cc2ccco2)Cc2nnnn2C2CCCC2)cc1` to `CC(c1ccccc1F)n1cc(C(=O)NCCc2ccco2)nn1` (stereo not given), the z-score falls from -0.482 to -0.606.

Going from `CC(NC(=O)C1CCCN(S(=O)(=O)c2cnc[nH]2)C1)c1ccccc1` (stereo not given) to `O=S(=O)(c1ccc2ccccc2c1)N1CCCOC1`, the z-score rises from -0.224 to 1.06.

Compared with `O=C(Cc1cc(=O)[nH][nH]1)N/N=C/c1ccccc1[N+](=O)[O-]`, `COc1ccc2ccccc2c1/C=N/NC(=O)c1sc(N)c(C#N)c1C` is lower in z-score: -0.295 for the first, -0.625 for the second.

First: Clc1ccc(OCc2nn3c(C4CCCCC4)nnc3s2)cc1
Second: Cn1nc([N+](=O)[O-])c2c(-c3nc4ccccc4s3)c(N)n(C3CCCCC3)c2c1=O
The z-score of the first is higher: -0.121 for the first, -0.261 for the second.

Compared with `CCOC(=O)N1CCC(NC(=O)C2CCN(S(=O)(=O)N3CCC(C)CC3)CC2)CC1`, `Cn1c(=O)c2c(nc(CN3CCC(C(N)=O)CC3)n2CCCc2ccccc2)n(C)c1=O` is lower in z-score: 0.687 for the first, -0.371 for the second.

Compared with `Cc1cccc(NC(=O)C2CCCN2C(=O)Oc2ccccc2)c1C` (stereo not given), `COC(=O)C(Cc1ccc(OC(=O)c2ccc(C)cc2)cc1)N1Cc2ccccc2C1=O` (stereo not given) is higher in z-score: 0.178 for the first, 0.664 for the second.

Compared with `O=C1NC(=O)[C@@H]2C3c4ccccc4C=CN3[C@H](C(=O)c3cccs3)[C@H]12` (stereo not given in full), `COc1cccc(C2NC(=O)NC(C)=C2C(=O)OCCSC)c1OC` (stereo not given) is higher in z-score: -0.687 for the first, 0.0431 for the second.

Compared with `COc1ccc2c(c1)OC(O)(C(F)F)CC2=O` (stereo not given), `C=CCN1C(=O)C(O)(CC(=O)c2ccc(OC)cc2OC)c2cc(Br)ccc21` (stereo not given) is lower in z-score: 0.794 for the first, -0.551 for the second.

First: Cc1c(C(=O)C(=O)NCCC2=CCCCC2)c2ccccc2n1C
Second: CN(C)S(=O)(=O)c1ccc(-c2csnn2)s1
The z-score of the first is lower: -0.264 for the first, -0.237 for the second.

With `S=c1nc(C2CCCCC2)[nH][nH]1` the z-score was -0.0473.

`O=C1CS/C(=N\C(=O)N2c3ccccc3Sc3ccccc32)N1` was tested, and the z-score was active: 7.66.
